Laboratory results as given in article PMC6919601, “Identification of Plasmodium dipeptidyl aminopeptidase allosteric inhibitors by high throughput screening” (PLoS ONE, 2019).
In all, about 110,000 compounds went through this assay and about 230 (0.21%) showed an effect of 50% or more. The list shows a part of the results.

What follows are molecules tested against DPAP1 (Plasmodium falciparum, UniProt Q8IIJ9) (assay: primary screen, percent inhibition; read by cleavage of a fluorogenic dipeptide substrate; higher = more effect of the substance).
Sequence of DPAP1 (Q8IIJ9 whole entry, looked up): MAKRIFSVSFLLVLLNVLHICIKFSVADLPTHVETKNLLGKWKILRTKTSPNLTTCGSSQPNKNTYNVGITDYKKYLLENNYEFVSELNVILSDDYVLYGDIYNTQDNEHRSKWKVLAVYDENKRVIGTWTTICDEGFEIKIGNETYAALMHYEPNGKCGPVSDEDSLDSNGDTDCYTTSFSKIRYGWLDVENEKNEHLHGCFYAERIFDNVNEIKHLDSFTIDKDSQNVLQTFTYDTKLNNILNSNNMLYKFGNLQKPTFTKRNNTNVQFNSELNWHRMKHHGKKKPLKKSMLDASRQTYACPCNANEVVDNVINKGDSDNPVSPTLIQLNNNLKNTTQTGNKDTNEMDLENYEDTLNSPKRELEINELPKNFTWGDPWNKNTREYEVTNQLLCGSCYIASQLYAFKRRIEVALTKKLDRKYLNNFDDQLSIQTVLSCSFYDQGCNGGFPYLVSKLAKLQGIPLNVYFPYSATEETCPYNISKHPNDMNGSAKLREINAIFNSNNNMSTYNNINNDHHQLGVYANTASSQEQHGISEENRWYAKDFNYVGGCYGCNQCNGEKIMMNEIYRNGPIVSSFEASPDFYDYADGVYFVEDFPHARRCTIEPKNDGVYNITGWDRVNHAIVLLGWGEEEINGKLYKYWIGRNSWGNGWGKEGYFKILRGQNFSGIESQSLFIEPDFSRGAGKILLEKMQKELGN
Parameters: species or system P. falciparum D10 trophozoite lysates; single well
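Note: 30 min substrate incubation versus DMSO and 10 µM JCP410 controls.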

Structure (SMILES)	% Inhibition @ 10 uM [%]
O=C(Nc1ccc(Br)cn1)C1=Cc2sc3c(c2CS1)CCCC3	4.79
COc1ccccc1-c1c(C)nn2c(N3CC(C)CC(C)C3)cc(C)nc12 (stereo not drawn)	-1.46
O=C(CCCOc1ccc(Cl)cc1Cl)N1CCN(c2ncccn2)CC1	-0.95
Cc1cccc(CN2CC(C)OC(C)C2)c1 (stereo not drawn)	-4.3
O=C(O)C1CC=CCC1C(=O)Nc1ccccc1 (stereo not drawn)	-1.78
COc1ccc(CN(C(=O)c2cc(=O)c3cc(Cl)ccc3o2)C2CCS(=O)(=O)C2)cc1 (stereo not drawn)	6.38
CCCOc1ccc(C(=O)N2CCCC2)cc1OC	-2.63
CC1=CC(C)(C)N(CC(=O)c2ccc([N+](=O)[O-])cc2)c2cc(C)ccc21	-0.771
O=C(Cn1nc(Cc2ccncc2)c2ccccc2c1=O)Nc1ccc(Cl)cn1	-3.14
O=C(O)c1[nH]c2ccccc2c1-n1cccc1	-1.75
COC(=O)c1ccc(-c2ccco2)n1CC(=O)NCCCc1ccccc1	0.943
Cc1ccc(/C=C/C2=NC(=C\c3ccc(C)o3)/C(=O)O2)cc1	5.32
CCOC(=O)C1CCN(C/C(C)=C/c2ccccc2)CC1	-2.34
CCOC(=O)c1cc(-c2ccccc2)sc1NC(=O)c1cccnc1	2.26
CCOc1ccccc1C1C(C#N)=C(N)Oc2cc(N)ccc21 (stereo not drawn)	2.54
CC1(C)CC(=O)C2=C(C1)N(c1ccccc1)C(N)=C(C#N)C2c1ccc2c(c1)OCO2 (stereo not drawn)	-5.07
CCN(CC)CCNC(=O)c1sc2ncn(CC(=O)N3CCCCC3)c(=O)c2c1C	-2.38
N#Cc1c(/N=C/c2ccc(O)cc2O)sc2c1C1CCN2CC1	-3.86
O=c1[nH]c2ncccc2c(=O)n1Cc1ccc2c(c1)OCO2	-7.18
O=C(O)c1cc(-c2cccs2)nc2ccc(Br)cc12	0.634
COc1ccc(NC(=O)c2nc3ccccc3s2)cc1	3.58
CC(=O)c1ccc(NC(=O)CC(c2ccccc2)c2ccccc2)cc1	-4.82
COc1cccc(C2C3=C(O)CC(C)(C)CC3=NC(C)=C2C(=O)Nc2cc(C)ccn2)c1 (stereo not drawn)	-1.1
CC(C)C1=NN2C(=N)/C(=C\c3coc4ccccc4c3=O)C(=O)N=C2S1	11.3
Cc1ccc(NC(=O)COc2ccc([N+](=O)[O-])cc2)c(C)c1	6.94
O=C(O)CCC(=O)Nc1ccc(N2CCN(c3ccc(Cl)c(Cl)c3)CC2)cc1	-7.47

Structure (SMILES)	% Inhibition @ 10 uM [%]
CN(C)c1nc(Oc2ccc(OCc3ccccc3)nn2)nc(N(C)C)n1	-6.95
O=C(CN1C(=O)c2cccc3cccc(c23)C1=O)NCc1ccc2c(c1)OCO2	-6.86
CC(C)C[C@H](NC(=O)N1CCOCC1)C(=O)NCC#N	-8.82
CC(C)c1ccc(NC(=O)c2ccccc2N)cc1	-3.1
C=CCO/C(O)=C1/C(C)=Nc2nc3ccccc3n2C1c1ccc(F)cc1 (stereo not drawn)	1.53
Cc1noc(/C=C/c2cccs2)c1S(=O)(=O)N1CCCC(C(=O)NCCC(C)C)C1 (stereo not drawn)	3.32
CCOC(=O)N1CCN(Cc2ccc(SC)cc2)CC1	3.24
Cc1ccccc1Cn1c2ccccc2c2cnn(CC(=O)NC3CCCC3)c(=O)c21	3.4
CCOc1ccc(-n2c(C)c(C(=O)OC)c3cc(OC)ccc32)cc1	2.16
Cn1cc(C(=O)N2CCOCC2)c2c3ccccc3n(C)c2c1=O	0.0654
Cc1cc(C)c(S(=O)(=O)c2nnn3c2nc(NCC2CCCO2)c2ccccc23)c(C)c1 (stereo not drawn)	-4.85
Cc1nc2c3ccccc3n3c(CCCC(=O)NCC(C)c4ccccc4)nnc3n2n1 (stereo not drawn)	-2.92
COc1ccc(NC(=O)/C(=C\c2ccco2)NC(=O)c2ccccc2)cc1	2.45
O=C(C1=C(O)C(=O)N(Cc2ccco2)C1c1cccnc1)c1ccc(Br)cc1 (stereo not drawn)	-1.22
COc1ccc(N2CCN(Cc3ccc(C)o3)CC2)cc1	-2.21
Cc1ccccc1CSCC(=O)NCCSC1CCCCC1	4.28
Cc1ccc(C=C2C(=O)N(C)C(=O)N(C)C2=O)s1	4.95
CCCN1CCC(N2CCC(C(N)=O)CC2)CC1	6.18
Cc1cc2c(c(=O)o1)C(c1ccco1)C(C#N)=C(N)O2 (stereo not drawn)	-1.98
CCc1nnc(NC(=O)CSc2nc(-c3ccc(C)cc3)ns2)s1	-0.398
CC(C)(C)NC(=O)C1COc2ccccc2O1 (stereo not drawn)	-1.95
Cc1cccc(N2CCN(C(=O)N3CCOCC3)CC2)c1C	-0.173
O=C1NC(=O)/C(=C\c2ccc(-c3ccc(Cl)c(C(=O)O)c3)o2)S1	8.24
Cn1cc(NC(=O)Nc2ccc(Cl)cn2)c2ccccc2c1=O	8.33
Cc1ccc(NC(=O)c2ccc(Br)cc2)cc1C	2.22
CC(C)NC(=O)c1sc2nc(-c3ccc(F)cc3)ccc2c1N	3.5

Structure (SMILES)	% Inhibition @ 10 uM [%]
Cc1cc(C)c2c(N)c(C(=O)Nc3cccc(C(F)(F)F)c3)sc2n1	-1.28
CCOC(=O)C1=C(C)OC(N)=C(C#N)C1c1ccc(-c2ccccc2)cc1 (stereo not drawn)	-4.94
COc1ccc(-c2cnc3c(=O)[nH]c(=O)[nH]c3n2)cc1	-5.35
CCOc1ccc(Cc2nc(-c3ccc(C(F)(F)F)cc3)no2)cc1OCC	1.84
COc1ccc(CCNC(=O)c2sc3nc(C)cc(C)c3c2-n2cccc2)cc1OC	2.27
O=C(Nc1ccc(F)cc1)c1cccc([N+](=O)[O-])c1	-1.93
C/N=C1/S/C(=C/c2ccc(-c3ccc(F)cc3F)o2)C(=O)N1C	-5.82
c1cncc(-c2nc3c4ccccc4nc(NCCCN(Cc4ccco4)C4CCCC4)n3n2)c1	-0.692
Cc1ccc(CN(CC(=O)N2CCN(c3ccc(F)cc3)CC2)S(=O)(=O)c2ccccc2)cc1	-5.46
CCc1nnc(NC(=O)c2cc(Cl)c(OC)c(Cl)c2)s1	7.73
CC(C)(C)c1ccc(C(=O)N2CCN(C34CC5CC(CC(C5)C3)C4)CC2)cc1	0.9
CCOC(=O)C1CCCN(Cc2ccc(C)cc2C)C1 (stereo not drawn)	-0.197
CCN(CC)S(=O)(=O)c1ccc(NC(=O)COc2ccc(Cl)cc2Br)cc1	-3.34
COc1ccc(CCn2c(C)c(C(C)=O)c(C(C)=O)c2C)cc1OC	-2.75
COc1cc2c(cc1OC)C(c1cccc(OC)c1O)N(C(C)=O)CC2 (stereo not drawn)	1.08
CCCCN1C(=O)CN(C2CCCCCC2)C(=O)C1c1ccccc1F (stereo not drawn)	-2.26
COc1ccc(C2OC(COc3ccccc3)CN(C(=O)c3ccccc3)O2)cc1OC (stereo not drawn)	22.4
CCCN(CCO)Cc1ccccc1	1.08
COc1ccc2cc(Br)ccc2c1CC(=O)NCC1CCCO1 (stereo not drawn)	-0.25
CCOc1cc(C(=O)Nc2nnc(S(=O)(=O)N3CCOCC3)s2)cc(OCC)c1OCC	-1.72
Cc1ccc(S(=O)(=O)Nc2nc3ccccc3nc2Nc2ccc(S(N)(=O)=O)cc2)cc1	-0.425
Cc1cc(O)n(-c2nc(-c3ccccc3)cs2)n1	-1.05
c1ccc(-c2cc3c(N4CCCCCC4)ncnc3s2)cc1	-5.28
COc1ccc(-c2nc(CSCC(=O)NCCCOC(C)C)c(C)o2)cc1	-1.05
CCN(CC)c1ncnc2sc(C(=O)NCCc3ccc(OC)c(OC)c3)c(C)c12	1.2
Cc1cc(NC(=O)c2cc3nc(-c4cccs4)cc(C(F)(F)Cl)n3n2)no1	2.02

Structure (SMILES)	% Inhibition @ 10 uM [%]
COc1ccc(-c2cc(C(=O)N3CCN(C)CC3)c3ccccc3n2)cc1	1.03
Cc1cc(C)n(CC(O)Cn2c3ccccc3c3ccccc32)n1 (stereo not drawn)	-10.2
Cc1cc(O)nc2c1c(O)nn2C1CCOC(C)(C)C1 (stereo not drawn)	2.84
CC(C)NC(=O)c1cnn(-c2ccccc2)c1-n1cccc1	-3.35
CC(C)C(=O)N1CCN(c2ccc(NC(=O)Cc3ccccc3)cc2Cl)CC1	5.08
CN(C(=O)c1ccco1)c1ccccc1	1.8
CCc1c(C)sc(NC(=O)Cn2nc(C(F)(F)F)c(Br)c2C)c1C(N)=O	5.09
Cc1ccccc1OCCCCCCN1CCCC1	-0.693
CCc1ccc(CN(C)CCc2ccccn2)cc1	1.83
Cc1nn2c3c(cnc2c1-c1ccccc1)C(=O)CC(C)C3 (stereo not drawn)	-5.2
Cc1ccc(NC(=O)CC2Sc3ccccc3NC2=O)c([N+](=O)[O-])c1 (stereo not drawn)	-0.424
CSC1=NC(C)(C)Cc2cc3c(cc21)OCCO3	-5.62
O=C(Nc1cccc2cccnc12)c1cccnc1	-6.65
CCC(Oc1ccccc1)C(=O)Nc1nn2c(-c3ccco3)nnc2s1 (stereo not drawn)	7.1
N#CCNC(=O)C1(NC(=O)OCc2ccccc2)CCCCC1	-6.46
O=c1c2c(-c3ccccc3)csc2nc2c3ccccc3c(NCCCO)nn12	0.835
CCOc1ccccc1C(=O)Nc1c(-c2cccs2)nc2cc(C)ccn12	0.121
O=C(O)CSCCc1ccncc1	1.8
COc1cc2c(cc1OC)Sc1ccccc1C(N1CCN(C)CC1)C2 (stereo not drawn)	4.64
COc1ccc(C2C3=C(O)CC(C)(C)CC3=Nc3nc4ccccc4n32)c(OC)c1OC (stereo not drawn)	1.73
CCCC(=O)N1CCN(c2ccc(NC(=O)c3ccco3)cc2)CC1	-0.519
O=C(Nc1nc2ccccc2s1)c1ccc(Br)cc1	2.63
Cc1nc2ncnn2c(C)c1CCC(=O)NCc1ccc2c(c1)OCO2	2.93
CNCc1ccccc1Sc1ccc(OC)c(OC)c1	-6.37
